According to PubChem BioAssay AID1030 (National Center for Advancing Translational Sciences (NCATS), 2008):
Out of some 220,000 compounds screened, about 16,000 (7.3%) were called active. Inconclusive means that the source gave no clear call. Such entries were picked first, then a sample of the others. The call rests on the fitted dose curve; in most records, active means well fitted inhibition curve with a large enough effect (not every such curve was filed as active); inconclusive means small, poorly fitted or top-dose-only effect, or another doubt; inactive means no such curve, though single readings can be large or run the other way. No potency is given beside an inconclusive call; the fits are too rough.

These compounds were tested against Aldehyde dehydrogenase 1A1 (Homo sapiens) (UniProt P00352) (assay: qHTS Assay for Inhibitors of Aldehyde Dehydrogenase 1 (ALDH1A1)). Conditions: Purified ALDH1A1, NADH fluorescence, propionaldehyde substrate; series mostly up to 75.3 µM.
Chain of UniProt P00352 (P00352 whole entry, looked up): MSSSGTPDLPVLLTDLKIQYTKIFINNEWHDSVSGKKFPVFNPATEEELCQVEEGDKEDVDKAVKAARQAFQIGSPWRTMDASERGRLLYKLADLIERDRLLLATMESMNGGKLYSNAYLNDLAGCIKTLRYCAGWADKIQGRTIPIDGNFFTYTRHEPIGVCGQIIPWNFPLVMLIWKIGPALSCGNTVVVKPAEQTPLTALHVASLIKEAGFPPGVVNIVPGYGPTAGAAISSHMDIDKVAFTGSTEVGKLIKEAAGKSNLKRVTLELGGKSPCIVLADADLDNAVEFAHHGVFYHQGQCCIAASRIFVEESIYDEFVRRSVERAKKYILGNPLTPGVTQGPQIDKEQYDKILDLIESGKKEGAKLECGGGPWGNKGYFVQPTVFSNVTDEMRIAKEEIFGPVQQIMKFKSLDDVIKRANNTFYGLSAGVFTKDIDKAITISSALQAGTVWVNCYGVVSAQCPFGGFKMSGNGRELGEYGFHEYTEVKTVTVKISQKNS
Potency means the concentration at half of the fitted maximal effect; tags describe the fitted curve by direction and shape.

Structure (SMILES) | Potency
Cn1cc(C(=O)CCl)c2ccccc21 | active: 0.0631 µM
C=CCn1c(-c2ccccc2)cc(SC)c(C#N)c1=O | inconclusive [inhibitor, single point]
CCC(Sc1nnnn1-c1ccccc1)C(=O)NC(C)c1ccccc1 (stereo not given) | inconclusive [inhibitor, single point]
Oc1c(C(c2ccccn2)N2CCCCC2)cc(Cl)c2cccnc12 (stereo not given) | inconclusive [inhibitor, single point]
O=S(=O)(Nc1nc2ccccc2s1)c1ccc(Cl)nc1 | inconclusive [inhibitor, single point]
CN(CC(=O)Nc1cccc(F)c1)CC(=O)Nc1ccccc1[N+](=O)[O-] | inconclusive [inhibitor, partial curve]
O=S(=O)(O)c1cc(S(=O)(=O)O)c2c(N=Nc3cccc4ccccc34)c(O)ccc2c1 | inconclusive [inhibitor, single point]
Cc1nc(N2CCN(C(=O)c3ccco3)CC2)c2oc3ccccc3c2n1 | active: 28.2 µM
CC1SC(C)C(=O)N(CC(=O)Nc2ccc3c(c2)OCO3)C1=O (stereo not given) | inconclusive [inhibitor, single point]
COc1cc(OC)c(OC)cc1CN(C)C(c1ccccc1)c1nnnn1-c1ccccc1C (stereo not given) | inconclusive [inhibitor, partial curve]
Cc1ccc(COc2ccsc2C(=O)NNC(N)=S)cc1 | inactive
O=C1c2ccccc2NC(c2ccc3c(c2)OCCO3)N1c1ccc2c(c1)OCCO2 (stereo not given) | inconclusive [inhibitor, single point]
CC(C)c1ccccc1OCCNS(C)(=O)=O | inactive
COc1ccc2c(c1)C(C)CC(C)(C)N2C(=O)CSc1ncn[nH]1 (stereo not given) | inconclusive [inhibitor, single point]
Cc1ccc(-c2csc(Nc3ccccc3)[n+]2CCc2ccccc2)cc1 | inconclusive [inhibitor, single point]
COc1ccc(/C=C/C(=O)c2c(O)cc(C)oc2=O)c(OC)c1 | inactive
O=C(/C=C/c1ccccc1)NC(NC(=S)Nc1cccc(O)c1)C(Cl)(Cl)Cl (stereo not given) | inconclusive [inhibitor, single point]
CC1(O)C(=O)C=C2C=C(c3ccc(C#N)cc3)OC=C2C1=O (stereo not given) | inactive
O=C(CSC1=NCCS1)N1CCc2ccccc21 | inactive
CCC(C)NC(=O)CN(C1CCCCC1)S(C)(=O)=O (stereo not given) | inactive
COc1ccc(Nc2c(-c3ccco3)nc3cccc(C)n23)cc1 | inconclusive [inhibitor, single point]
CC1CCCN(C(=O)Cn2c(-c3nonc3N)nc3ccccc32)C1 (stereo not given) | inconclusive [inhibitor, partial curve, poor fit]
Cc1csc(NC(=O)c2cnc3ccccn3c2=O)n1 | inconclusive [inhibitor, single point]
COc1ccc(Cl)cc1NC(=S)NCc1cccnc1 | inconclusive [inhibitor, single point]
Cc1cc(NCCCN2CCOCC2)n2c(nc3ccccc32)c1C#N | inconclusive [inhibitor, partial curve]

Structure (SMILES) | Potency
COC(=O)c1ccc(Cn2nc(C)c(Cl)c2C)o1 | active: 28.2 µM
Cc1ccc(Nc2nnc(SCC(=O)Nc3cccc(S(=O)(=O)NC4=NCCCCC4)c3)s2)c(C)c1 | inconclusive [inhibitor, single point]
CC(C)(C)c1ccc(C(=O)NCCn2c(N)c(C#N)c3nc4ccccc4nc32)cc1 | inconclusive [inhibitor, partial curve]
CCOC(=O)C1=C(Nc2ccc(OC)cc2)OCC1=O | inactive
COC(=O)CSc1ccc2nnc(-c3ccc(F)cc3)n2n1 | inconclusive [inhibitor, single point]
O=C(NNc1nc2cc3c(cc2s1)OCO3)c1ccccc1 | inconclusive [inhibitor, single point]
N#Cc1cc(Sc2ccccn2)c([N+](=O)[O-])cc1C#N | inconclusive [inhibitor, partial curve]
O=C(CCNS(=O)(=O)c1ccc2c(c1)CCC(=O)N2)NCc1ccc2c(c1)OCO2 | inactive
COc1ccc(Cn2c(O)c(/C=N/NC(=O)c3cccnc3)c3ccccc3c2=O)cc1 | inconclusive [inhibitor, single point]
O=C(c1ccccc1)N1CCN(c2ccc([N+](=O)[O-])c(NCc3cccnc3)c2)CC1 | active: 11.2 µM
O=C(Nc1ccc(N2CCN(C(=O)c3ccccc3)CC2)c(Cl)c1)c1ccco1 | inconclusive [inhibitor, single point]
COc1ccccc1NC(CC(=O)c1ccccc1)C(=O)OCC(=O)c1ccc(C)c(C)c1 (stereo not given) | active: 7.08 µM
COc1ccc(O)c(/C=N/Nc2nc3ccccc3[nH]2)c1 | inactive
N=C1c2ccccc2CN1c1ccc(N2CCOCC2)c(S(=O)(=O)Nc2ccc(Cl)cc2)c1 | active: 1.78 µM
Cc1cccc(-n2ncc3c(NCCCn4ccnc4)ncnc32)c1 | inconclusive [inhibitor, partial curve]
CC1(C)OC(=O)C(=CNc2ncccn2)C(=O)O1 | inconclusive [inhibitor, single point]
Cc1cccc(C(=O)n2c(=S)nc3ccccn32)c1 | active: 10 µM
Cc1cc(=O)oc2cc(OCC(=O)Nc3nnc(C(C)C)s3)ccc12 | inconclusive [inhibitor, partial curve]
CCCCCCCNS(=O)(=O)c1cccc2c(Cl)cccc12 | inactive
CC(=O)c1c(O)c2ccccc2n(C2CCCCC2)c1=O | inconclusive [inhibitor, partial curve]
COc1ccc(CN2CCCCC2c2cccnc2)c(OC)c1C (stereo not given) | inactive
CCN(CC)S(=O)(=O)c1ccc(OC)c(NC(=S)Nc2cccc(C)c2C)c1 | active: 25.1 µM
Cn1c(=O)c(-c2cc(F)cc(F)c2)nc2cncnc21 | inactive
OC1COC(OCC2OC(OCc3ccccc3)C(O)C(O)C2O)C(O)C1O (stereo not given) | inactive
COc1ccccc1N(O)C1CC(=O)N(c2ccc(Br)cc2)C1=O (stereo not given) | active: 17.8 µM

Structure (SMILES) | Potency
Cc1ccc(Sc2cc(C(F)(F)F)nc(N(C)C)n2)cc1 | inconclusive [inhibitor, full curve]
CCOC(=O)C1=C(N)OC2=C(C(=O)CCC2)C1c1ccccc1OCC (stereo not given) | inconclusive [inhibitor, single point]
O=C(CCN1CCC(c2ccccc2)C1)c1cccs1 (stereo not given) | active: 0.126 µM
CN(C)S(=O)(=O)c1cc(NC(=O)COC(=O)C2CSC3(C)CCC(=O)N23)ccc1Cl (stereo not given) | inconclusive [inhibitor, single point]
COc1ccc2c(Cl)c(-c3nnc4n3CCCCC4)sc2c1 | inconclusive [inhibitor, single point]
O=c1c2ccccc2c(/C=N/NS(=O)(=O)c2ccccc2)c(O)n1-c1ccccn1 | inconclusive [inhibitor, partial curve]
CCOC(=O)C1CCN(c2c(-c3ccccc3)c3cc(Cl)ccc3[nH]c2=O)CC1 | inconclusive [inhibitor, partial curve]
CN(Cc1cnc2nc(N)nc(N)c2n1)c1ccc(C(=O)NC(CCC(=O)O)C(=O)O)cc1 (stereo not given) | inactive
O=C(Cn1c(C(F)(F)F)nc2ccccc21)Oc1cccc(C(F)(F)F)c1 | inactive
Cc1ccc(S(=O)(=O)NC(=O)NC(C)Cc2ccccc2)cc1 (stereo not given) | inactive
CC(C)(C)C(=O)Cn1ncc(Cl)c(Cl)c1=O | inconclusive [inhibitor, single point]
COc1cc(CCNC(=O)c2cnn3ccccc23)cc(OC)c1OC | inconclusive [inhibitor, single point]
Cc1nn2c(C)c(C(=O)Nc3ccccc3)cnc2c1C#N | inactive
CCOC(=O)C1C2C=CC3(CN(Cc4ccco4)C(=O)C13)O2 (stereo not given) | inconclusive [inhibitor, single point]
CN(C)c1ccc(/C(=N\O)c2ccccc2)cc1 | inconclusive [inhibitor, single point]
CCC(=O)OC1(C)C(=O)C=C2C=C(CCCNC(=O)OC(C)(C)C)OC=C2C1=O (stereo not given) | inactive
O=C1CCn2nc(-c3ccc(Cl)cc3)cc2N1 | inactive
CSc1cnc2c(N)nc(N(C)C)nc2n1 | inconclusive [inhibitor, single point]
COc1cc(C2c3c(oc4ccccc4c3=O)C(=O)N2Cc2ccco2)ccc1O (stereo not given) | inconclusive [inhibitor, partial curve]
O=C(Nc1nnc(COc2ccc(Cl)cc2)s1)C1CCCO1 (stereo not given) | active: 10 µM
CCCC(=O)Nc1ccc(Sc2ccc([N+](=O)[O-])cc2)cc1 | inactive
O=c1c2ccccc2nnn1Cc1nnc(-c2ccccc2Br)o1 | inconclusive [inhibitor, single point]
COc1cccc(Cn2c(=O)cnc3cnc(OC)nc32)c1 | inactive
Cc1ccc2cc(CN(CCN3CCOCC3)C(=O)NCc3ccccc3)c(=O)[nH]c2c1C | inconclusive [inhibitor, single point]
O=C(c1ccccc1F)N1CCN(Cc2ccccc2F)CC1 | inconclusive [inhibitor, single point]
